# Measured values reported in PubChem BioAssay AID743279 (National Center for Advancing Translational Sciences (NCATS), 2014).
# The whole screen tested about 360,000 compounds, of which about 17,000 (4.7%) were called active. Inconclusive results, whose numbers are uncertain, are shown with a selection of clear calls. Rule as the data show it: active = activity change below about -50%; inconclusive = mostly about -30% to -49%; inactive = weaker than that.
# Assay: qHTS for Inhibitors of Inflammasome Signaling: IL-1-beta AlphaLISA Primary Screen
# Conditions: THP-1 LPS/ATP IL-1B secretion, 16 h; at 57.5 µM, stronger effect = lower value
# Procedure, shortened: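 THP-1 cells pretreated 1 hr with compounds (up to 57.5 uM final), then stimulated with LPS (250 ng/mL final) plus ATP (1.25 mM final); secreted IL-1B measured by AlphaLISA after 16 hr, decreased signal indicating inhibition.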
# % is scaled to controls: 0 for no effect and ±100 for the full control effect.
row,Structure (SMILES),activity change
1,N#CC(=C(O)COC(=O)CCC1CCCCC1)c1nc2ccccc2[nH]1,active: -98.5%
2,CCOc1cccc(C(=O)Nc2ccc3oc(-c4cccnc4)nc3c2)c1,inconclusive: -36.1%
3,COc1ccc(OC)c(-c2cc(C(=O)Nc3c(C)nn(Cc4ccccc4)c3C)no2)c1,inconclusive: -42.2%
4,COc1cc(C(=O)N(CCN(C)C)CC2CCCN(Cc3ccccc3F)C2)ccc1C (stereo not given),inconclusive: -35.5%
5,O=C(Nc1ccc(F)c(F)c1)c1ccc(-n2cncn2)c([N+](=O)[O-])c1,inconclusive: -40.5%
6,COc1cccc(C=NN(C)c2c([N+](=O)[O-])cc(C(F)(F)F)cc2[N+](=O)[O-])c1O,inconclusive: -38%
7,COc1ccc(-c2ccc(C(C)=O)cc2)cc1[C@H]1[C@@H]2C=CCC[C@@]2(C)C(=O)N1Cc1ccccc1,inconclusive: -47.9%
8,COc1cc2[nH]cc(C(=O)NCc3ccccc3)c(=O)c2cc1OC,inactive: -15.6%
9,CC12CCC(C(=O)N3CCN(c4ncccn4)CC3)(c3nc4ccccc4nc31)C2(C)C (stereo not given),inconclusive: -42.6%
10,COC(=O)c1cc(OC)c(OC)cc1NC(=S)Nc1cccc(Cl)c1,inconclusive: -34.4%
11,COc1ccc(C2CC(c3cccs3)=NN2C(=O)CCC(=O)O)cc1 (stereo not given),inactive: 5.04%
12,O=C(NCCN1CCOCC1)C1CC(=O)N(c2cccc(C(F)(F)F)c2)C1 (stereo not given),inactive: 6.16%
13,O=C1NC[C@@H](CCCCN2C[C@H](Cc3ccccc3)N(CCC3CCCCC3)C(=O)C2=O)N(Cc2ccccc2)C1=O,inconclusive: -31.3%
14,Cc1cccc(-n2c(SCC(N)=O)nc3c(c2=O)C2(CCCCC2)Cc2ccccc2-3)c1,active: -72.3%
15,OC(CNCc1ccccc1Cl)COc1ccc(F)cc1 (stereo not given),inconclusive: -41.7%
16,COC(=O)[C@@]12C[C@@H](CC(=O)NCc3cccc(C(F)(F)F)c3)C(=O)N(Cc3ccco3)C1=CCC(C)(C)C2,inconclusive: -42.1%
17,Cc1ccc(CNC(=O)CNC(=S)N(Cc2ccccc2)Cc2cccnc2)cc1,inconclusive: -43.2%
18,CCOC(=O)c1c(NC(=O)COC(=O)c2ncc(Cl)c(Cl)c2Cl)sc(C(=O)N(C)C)c1C,inconclusive: -38.4%
19,CCC(CC)C(=O)Nc1ccc(-c2cn3cccnc3n2)cc1,inconclusive: -32.1%
20,O=C(Nc1nnc(S(=O)(=O)N2CCN(c3ccc(F)cc3)CC2)s1)c1ccccc1,inactive: 27.4%
21,CC12CCC(C/C1=N\N=C1\NC(=O)/C(=C\c3ccc(Cl)cc3)S1)C2(C)C (stereo not given),active: -57.4%
22,CCOC(=O)C1CCN(C(=O)c2ccc3c(=O)n4nc(Nc5ccccc5OC)sc4nc3c2)CC1,active: -52.2%

row,Structure (SMILES),activity change
1,O=C(NCC1CCCO1)c1onc(CSc2ccc(F)c(F)c2)c1C(=O)O (stereo not given),inactive: 39.3%
2,Cc1ccccc1C(=O)Nc1ccc(S(=O)(=O)N2CCCC2)cc1,inactive: -0.339%
3,CC(C)(C)C(=O)N1CCN(c2ccc(NC(=O)c3ccco3)cc2)CC1,inconclusive: -48.6%
4,O=C(CCn1c(=O)[nH]c2ccsc2c1=O)N(CCc1ccccc1)Cc1ccccc1,inconclusive: -41%
5,O=C(Nc1ccc(F)cc1)NC1CCCCCCC1,inconclusive: -31.7%
6,O=C(CN1CCN(C(=O)CCC(=O)N2CCC(c3ccccc3)=N2)CC1)Nc1cccc(F)c1,inconclusive: -38.8%
7,CCNC(=S)N/N=C/c1cc(C)n(-c2ccc(Cl)cc2)c1C,inconclusive: -30.2%
8,COc1cc(C2C=C(Nc3ccccc3)C(=O)N2c2ccccc2)ccc1O (stereo not given),inconclusive: -33.9%
9,COc1ccc(-c2ccc3nnc(SCC(=O)N4CCCC4)n3n2)cc1,inconclusive: -30.8%
10,CC1CCCCC1NC(=O)/C(C#N)=C/c1ccccc1F (stereo not given),active: -101%
11,CCN(CC)S(=O)(=O)c1ccc(NC(=O)c2ccc(OCC3CCCO3)cc2)cc1 (stereo not given),inconclusive: -37.4%
12,COc1ccc(-c2cc3nc4n(c(=O)c3s2)CCCCC4)cc1,inconclusive: -48%
13,CCc1ccc(NC(=O)Nc2ccc3c(c2)N(C)C(=O)CS3)cc1,inconclusive: -40.7%
14,CCOC(=O)c1c(C)cc(C)[nH]c1=O,inactive: 10.8%
15,CC(=O)N(C)c1ccc(NC(=O)COc2ccc(Br)cc2C)cc1,inconclusive: -45.1%
16,COc1ccc(OC)c(C(c2nnnn2C(C)(C)C)N2CCc3ccccc3C2)c1 (stereo not given),inconclusive: -45.7%
17,COC(=O)CSc1ncnc2c1sc1nc(N3CCOCC3)c3c(c12)CCCC3,inactive: 21.4%
18,O=C(NCCCN1CCN(c2cccc(Cl)c2)CC1)C1CCC(=O)N1Cc1ccccc1Cl (stereo not given),active: -54.9%
19,O=C(Nc1ccc(Cl)cc1)C1CCCN(c2ncnc3c2nc2n3CCCCC2)C1 (stereo not given),active: -59.4%
20,O=[N+]([O-])c1cc(C(F)(F)F)ccc1N1CCN(S(=O)(=O)c2ccc3ccccc3c2)CC1,inconclusive: -44.3%
21,CCOC(=O)N1CCc2[nH]c3ccc(C)cc3c2C1,inconclusive: -48.3%
22,O=C(CCCOc1ccccc1)N1CCN(C(=O)c2ccco2)CC1,inactive: 1.49%

row,Structure (SMILES),activity change
1,COc1ccc(NC(=S)NCCc2c[nH]c3ccc(OC)cc23)c(OC)c1,inconclusive: -44.1%
2,Cc1[nH]c2ccccc2c1C(=O)COc1ccccc1F,inconclusive: -38.8%
3,C/C(=N/NC(=O)c1ccc(-c2ccccc2)cc1)c1cccc(O)c1,inconclusive: -44%
4,CC(C)c1ccc2[nH]c3c(c2c1)CCC/C3=N\NC(=O)c1ccncc1,active: -52.5%
5,O=C(Nc1ccccc1)C(c1ccccc1)C1CCCC1 (stereo not given),active: -91.4%
6,CC(=O)Nc1ccc(CNc2nc(NC(C)C)nc3cc(-c4ccccc4)sc23)cc1,active: -114%
7,Clc1ccc2c(c1)-c1[nH]ncc1CS2,inconclusive: -31.9%
8,Cc1ccc2c(c1)COc1c3ccc(C(=O)NCCO)cc3nn1-2,inconclusive: -40.6%
9,Cc1ccc(-n2[nH]c(C)c(/C=N/NC(=O)c3ccc(O)cc3O)c2=O)cc1,inactive: 220%
10,c1ccc(-c2ccccc2OCCCN2CCCCCC2)cc1,inconclusive: -45.4%
11,COc1ccc(C(=O)NC2CCN(Cc3ccccc3)C2)cc1S(=O)(=O)N1CCOCC1 (stereo not given),inconclusive: -39.1%
12,CCCCn1c(=O)[nH]c(=O)c2c1nc(Cn1ncc(Cl)c(Cl)c1=O)n2CCC,active: -104%
13,Cc1cc(C)c2cc(C(=O)N3CCC(C(=O)c4ccc(F)cc4)CC3)[nH]c2c1,inconclusive: -33.4%
14,COC(=O)c1ccc(C2SCC(=O)N2Cc2ccccc2)cc1 (stereo not given),inactive: 28.4%
15,O=C(C=Cc1ccc2c(c1)OCO2)c1ccccc1,active: -72.2%
16,O=C(C(c1ccccc1)c1ccccc1)N1CCN(CC(O)COc2ccccc2)CC1 (stereo not given),inconclusive: -37.9%
17,COc1ccc(NC(=O)c2cc(CC(C)C)nc3ccccc23)cc1,inconclusive: -46%
18,CCN(CC1COc2ccccc2O1)C(=O)CN1C(=O)NC(C)(c2ccccc2)C1=O (stereo not given),inconclusive: -31.5%
19,CN(C)c1cccc2c1c(NC(=O)Nc1ccc(F)cc1F)nn2C,active: -53%
20,CN1CCC(N2CCN(C3CN(C4CCCCC4)S(=O)(=O)C3)CC2)CC1 (stereo not given),inactive: 0%
21,O=C1c2cccc(OCC(=O)N3CCCc4ccccc43)c2CCN1Cc1ccc(F)cc1,inconclusive: -40.2%
22,Nc1ccc(N(c2ccccc2)c2ccc(N)cc2)cc1,inactive: 16.7%

row,Structure (SMILES),activity change
1,CNC(=O)N(c1ccccc1)c1ccccc1,inactive: 21.3%
2,COc1cccc(NC(=O)Nc2ccc(C(C)(C)C)cc2)c1,active: -66.3%
3,CCOP(=O)(OCC)C(C)(C)NC(=O)c1cc([N+](=O)[O-])cc([N+](=O)[O-])c1,inconclusive: -43%
4,COc1cc(OC)cc(-c2c(-c3ccc(F)cc3)c3cc(-c4cnc(OC)nc4)ccc3n2C)c1,inactive: 5.83%
5,CSc1ccc(CNCCCN(C)C)cc1,active: -54.3%
6,O=C1C2CC=C(Cl)CC2C(=O)N1CC1OCCc2ccccc21 (stereo not given),inconclusive: -43.5%
7,CCOc1ccc(S(N)(=O)=O)cc1-c1nc2c(C(C)(C)C)nn(C)c2c(=O)[nH]1,inconclusive: -32.2%
8,Cc1cc(C(=O)COC(=O)c2ccc(O)cc2)c(C)n1-c1ccccc1F,inconclusive: -31%
9,BrC(/C=N/N1CCN(Cc2ccccc2)CC1)=C/c1ccccc1,active: -81.5%
10,C[C@]12C=CC(=O)C=C1CC[C@H]1[C@@H]3C[C@@H](O)[C@](O)(C(=O)CO)[C@@]3(C)C[C@H](O)[C@@]12F,inconclusive: -43.7%
11,Cc1cccc(-n2c(O)c(C=Nc3ccccc3O)c3ccccc3c2=O)n1,inconclusive: -45.7%
12,Cc1ccc(-c2csc(NCCn3c(-c4ccncc4)nc4cc(C(F)(F)F)ccc43)n2)cc1,inconclusive: -47.3%
13,CC(C)c1ccc(S(=O)(=O)N2CCN(C(=S)NCc3ccco3)CC2)cc1,inactive: 0%
14,O=C(CSc1nc2ccc(Nc3nc(N4CCOCC4)nc(N4CCOCC4)n3)cc2s1)NCc1ccco1,inconclusive: -30%
15,Nc1nc(-c2ccccc2)nc(-c2ccccc2O)n1,inconclusive: -41.4%
16,O=C(Nc1ccccc1F)c1ccc([N+](=O)[O-])s1,active: -68.3%
17,CC(C)(C)n1ncc2c(=O)n(Cc3cccc(Cl)c3)cnc21,inconclusive: -37%
18,CCN1C(=O)[C@H]2[C@@H](c3ccc(C(F)(F)F)cc3)N[C@]3(CCCN(Cc4ccc(Br)cc4)C3=O)[C@H]2C1=O,inactive: -19.9%
19,CC(C)CN(C(=O)CN(C)C(=O)Cc1c(F)cccc1Cl)c1c(N)n(CC(C)C)c(=O)[nH]c1=O,inconclusive: -43.7%
